Measured values from paper PMC4336329 (PLoS ONE, 2015).
In all, about 310,000 compounds went through this assay and about 2,200 (0.71%) showed an effect of 50% or more. The effect is printed as a negative number. The list shows a part of the results.

molecular target: human ether-à-go-go-related gene (hERG) potassium channel (human, UniProt Q12809); experiment: primary screen, population patch clamp on CHO cells stably expressing hERG
Sequence (Q12809 whole entry, looked up): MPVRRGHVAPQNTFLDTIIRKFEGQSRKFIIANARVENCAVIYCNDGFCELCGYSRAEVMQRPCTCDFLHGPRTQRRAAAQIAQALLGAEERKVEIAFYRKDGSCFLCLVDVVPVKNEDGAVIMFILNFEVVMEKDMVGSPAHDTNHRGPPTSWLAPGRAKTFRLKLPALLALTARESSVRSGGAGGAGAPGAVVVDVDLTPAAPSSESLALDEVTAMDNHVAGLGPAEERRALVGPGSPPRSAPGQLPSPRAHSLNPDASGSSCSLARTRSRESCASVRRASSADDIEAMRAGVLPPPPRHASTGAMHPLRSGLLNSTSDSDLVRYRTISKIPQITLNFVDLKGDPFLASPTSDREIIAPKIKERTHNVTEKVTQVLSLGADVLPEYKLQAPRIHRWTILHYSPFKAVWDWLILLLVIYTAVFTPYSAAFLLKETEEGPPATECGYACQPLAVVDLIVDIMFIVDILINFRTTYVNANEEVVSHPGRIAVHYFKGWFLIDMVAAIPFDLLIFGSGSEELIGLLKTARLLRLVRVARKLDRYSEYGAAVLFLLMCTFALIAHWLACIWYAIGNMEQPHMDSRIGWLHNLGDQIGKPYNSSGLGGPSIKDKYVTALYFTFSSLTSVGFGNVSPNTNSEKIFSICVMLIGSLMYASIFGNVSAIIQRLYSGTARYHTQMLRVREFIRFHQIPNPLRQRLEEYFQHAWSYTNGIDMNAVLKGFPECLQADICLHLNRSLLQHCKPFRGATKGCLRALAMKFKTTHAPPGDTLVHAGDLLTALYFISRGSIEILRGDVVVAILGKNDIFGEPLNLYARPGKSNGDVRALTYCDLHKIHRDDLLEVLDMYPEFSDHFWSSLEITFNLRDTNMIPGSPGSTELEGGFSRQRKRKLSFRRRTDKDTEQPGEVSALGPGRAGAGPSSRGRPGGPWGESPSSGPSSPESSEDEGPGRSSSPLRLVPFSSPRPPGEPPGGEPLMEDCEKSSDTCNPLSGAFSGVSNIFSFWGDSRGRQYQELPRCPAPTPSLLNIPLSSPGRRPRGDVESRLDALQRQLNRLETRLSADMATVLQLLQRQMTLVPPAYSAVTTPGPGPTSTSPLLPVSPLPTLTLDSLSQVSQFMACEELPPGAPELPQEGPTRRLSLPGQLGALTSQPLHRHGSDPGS

Structure (SMILES)	hERG current change (%, negative = inhibition) at 1uM [%]
CN(C)CCCNC(=O)c1ccc(Cl)c(S(=O)(=O)N(C)c2ccccc2)c1.Cl	-0.935
CC1CCC2C(C)C(=O)OC3OC4(C)CCC1C32OO4 (stereo not drawn)	12
CCN1CCN(c2nc(-c3ccncc3)nc3ccccc23)CC1	-75.6
CSc1nc2ncc3c(n2n1)CC(C)(C)CC3=O	3.97
Cc1ccc(S(=O)(=O)CCC(=O)OCC(=O)NC(C)c2ccccc2)cc1 (stereo not drawn)	15.4
CSc1ncccc1C(=O)N1CCN(S(=O)(=O)c2cc(C)ccc2C)CC1	6.27
CC(C)NS(=O)(=O)c1ccc(OCC(=O)NCc2ccco2)cc1	12.9
CCc1nccn1C(=O)c1cnn2c(C(F)F)cc(-c3ccccc3)nc12	18.1
CCCC1C(c2ccc(OC)cc2)C(C#N)(C#N)C2(C#N)CC1(N)NC2=O (stereo not drawn)	-6.06
COc1cccc(CNC(=O)CN(C)S(=O)(=O)c2cccc3cccnc23)c1	9.89
Cc1ccn(C(C)CC(=O)Nc2ccc(-c3ccno3)cc2)n1 (stereo not drawn)	6.45
O=C(CSc1nnc(SCc2ccc(Cl)cc2)s1)N1CCOCC1	4.81
CC(C)CN1CN(Cc2ccco2)CNC1=S	-2.11
CCCNC(=O)c1ccc(N2CC3CC(C2)c2cccc(=O)n2C3)c(NC(=O)Nc2ccc(CC)cc2)c1 (stereo not drawn)	-56.1
O=C(Nc1ccc(S(=O)(=O)Nc2ccccc2)cc1)C1CC1	3.76
CCC(C)(C(=O)NC1CCCC1)N(C(=O)CNC(C)=O)c1ccccc1 (stereo not drawn)	7.61
CCc1cccc2c3c([nH]c12)C(CC)(CC(=O)O)OCC3 (stereo not drawn)	18.3
COC(=O)CCCCCNc1ccc(C(=O)OC)cc1N	3.37
Cc1ccc(S(=O)(=O)N2CCN(C(=O)C(C)Cn3cncn3)CC2)cc1C (stereo not drawn)	10.8
COc1ccc(C(=O)Nc2ccccc2C(=O)N/N=C/c2ccncc2)cc1OC	8.19
CCOC(=O)c1oc2cc(O)c(CC)cc2c(=O)c1-c1cscn1	16.4
Oc1ccc(Cl)cc1/C=N/c1nccs1	1.8
O=C(CNS(=O)(=O)c1ccc2ccccc2c1)OCC(=O)c1ccc(Br)s1	15.9

Structure (SMILES)	hERG current change (%, negative = inhibition) at 1uM [%]
COc1cc(OC)cc(C(=O)NN2CCCCC2)c1	-5.02
O=S(=O)(Nc1ccc2c(c1)OCCO2)c1ccc(F)cc1	-5.09
Cc1oc(/C=N/NS(=O)(=O)c2ccccc2)cc1Br	0.915
O=C(c1ccccc1)N1CCN(C(=O)c2ccc(OC(F)(F)F)cc2)CC1	-5.25
Cc1ccc(C(=O)N/N=C\c2ccc(-c3ccc(Cl)cc3)o2)cn1	4.45
COc1ccccc1CC(=O)Nc1ccc(S(=O)(=O)N2CCOCC2)cc1	17.7
Cc1c(OCc2ccccc2)c(=O)ccn1Cc1ccc(F)cc1	7.76
Cc1cccc(NC(=O)c2sc3nc4c(c(-c5cccs5)c3c2N)CN(C)CC4)c1	-10.4
CCOc1ccccc1NC(=O)C1CCCN(S(=O)(=O)c2ccc3c(c2)C(C)(C)C(=O)N3C)C1 (stereo not drawn)	6.06
COc1ccc(CNC(=O)[C@@H](NC(=O)C2CCN(C(=O)[C@@H](N)CCSC)CC2)C(C)C)cc1	12.6
C=CCOC(=O)C1=C[C@H](c2ccc3c(c2)OCO3)C[C@H](OCCCCO)O1	-14.2
O=[N+]([O-])c1ccccc1CNCCO	10.3
Cc1nn(-c2ccccc2)c2c1C1(C(=O)N3c4c(cccc41)C(C)CC3(C)C)C(C#N)=C(N)O2 (stereo not drawn)	4.63
COC(=O)c1c(NC(=O)c2cccs2)sc2c1CCCC2	12.4
Cc1ccc(CN2CCN(Cc3cnc(C)s3)CC2CCO)cc1 (stereo not drawn)	-0.701
Nc1nc(SCC(=O)NCC2CCCO2)[nH]c(=O)c1NC(=O)c1ccco1 (stereo not drawn)	16.2
CC(=O)c1c(C(C)=O)c(C)n(-c2ccc(C)c(NC(=O)c3ccccc3Cl)c2)c1C	3.92
Clc1ccccc1Oc1cnc2ccccc2n1	6.59
O=C(NNc1ccc([N+](=O)[O-])cc1)c1ccco1	-3.57
Cc1ccc(SCC(=O)Nc2ccc(S(=O)(=O)Nc3nccs3)cc2)cc1	14
O=C(Nc1ccc2ccccc2c1)c1ccc2[nH]c(=O)c(=O)[nH]c2c1	15.1
C=CCc1ccccc1OCC(O)CN1CCN(c2ccc(OC)cc2)CC1.Cl (stereo not drawn)	-27.3
O=C(Cc1ccccc1)N/N=C/c1cc2c(cc1Cl)OCO2	8.86

Structure (SMILES)	hERG current change (%, negative = inhibition) at 1uM [%]
CC(C(=O)Nc1cc(C(F)(F)F)ccc1N1CCOCC1)N1C(=O)C2CCCCC2C1=O (stereo not drawn)	4.58
O=C(O)C1CC=CCC1C(=O)Nc1cccc(Cl)c1 (stereo not drawn)	15.8
CCCN(Cc1cc2cccc(C)c2[nH]c1=O)S(C)(=O)=O	-5.19
O=C1CSC(c2cccc([N+](=O)[O-])c2)N1c1ccccc1 (stereo not drawn)	3.69
COc1ccccc1C(=O)NCCC(=O)N1CCN(c2ccccc2O)CC1	22.8
Cc1nc(C)c(-c2csc(Nc3ncccc3C)n2)s1	9.41
Cc1cc(C)nc(NC(=S)NC(=O)c2ccccc2)n1	15.2
CCc1noc(C)c1C(=O)Nc1nnc(CC(C)C)s1	12.3
CCN1C(=S)SC(=O)C1=C1C=C(C)N(CCO)C(C)=C1	4.65
COc1ccc(-c2oc3ccccc3c2C#CC(C)(C)O)cc1	13.6
COc1ccc(-c2cc(C3CCNCC3)[nH]n2)cc1	13.8
Cc1[nH]c2ccccc2c1C(=O)C(=O)N1CCC2(CC1)OCCO2	12
CC(=O)CSc1nc(C(F)(F)F)cc(=O)n1-c1ccccc1	13.7
CC(=O)Nc1cccc(C(=O)N/N=C/c2ccccc2F)c1	15.7
COc1ccc(C2CC(c3ccc4ccccc4c3)=NN2C(=O)CNC2CCCCC2)cc1 (stereo not drawn)	0.406
COc1ccc(NC(=O)n2ncc3c(C)cccc32)cc1	16.9
COC(=O)[C@H](CC(C)C)NC(=O)Nc1ccc(F)cc1	13.1
Cc1n(C)c2cc(Cl)ccc2[n+]1Cc1ccccc1.[I-]	4.11
O=C(Nc1nc2ccccc2[nH]1)c1ccc(Cl)cc1	14.9
CC(NC(=O)C1CCC1)c1ccc(Br)cc1 (stereo not drawn)	-2.26
O=C(COc1ccccc1Cl)Nc1cccc(S(=O)(=O)NC2=NCCCCC2)c1	14.6
COc1cc(NC(=S)N2CCN(C(=O)c3ccco3)CC2)c(OC)cc1Cl	-2.61
O=C(COC(=O)/C=C/c1ccc(S(=O)(=O)N2CCOCC2)cc1)NCc1ccc(Cl)cc1	7.11

Structure (SMILES)	hERG current change (%, negative = inhibition) at 1uM [%]
Cc1ccc(C)c(NS(=O)(=O)c2ccc3c(c2)NC(=O)CO3)c1	5.73
Cc1ccc(C2C(C#N)=C(N)Oc3n[nH]c(-c4ccccc4)c32)o1 (stereo not drawn)	9.45
Cc1cc(Br)ccc1NC(=O)CNC(=O)COc1ccccc1C	6.77
O=C(NCc1ccncc1)C(=O)NC1CC1	12.1
COC(=O)C1=C(C)N(c2ccc(C)cc2)/C(=C/c2ccc(O)cc2)C1=O	18
Cc1ccc(C)c(S(=O)(=O)Nc2ccc(O)c3ccccc23)c1	-3.49
CN(C)c1ccc(NC(=S)NCC2CCCO2)cc1 (stereo not drawn)	8.44
O=C(Nc1ccccc1)c1cccc(S(=O)(=O)Oc2ccc([N+](=O)[O-])cc2)c1	-39
CCOC(=O)[C@H]1[C@H]2COc3ccc(C)cc3[C@@H]2N2C(=O)CN(Cc3ccco3)C(=O)[C@@]12C	8.91
Cc1noc(C)c1C(=O)OCC(=O)C12CC3CC(CC(C3)C1)C2	1.11
CCOC(=O)c1cncn1[C@H](C)c1ccccc1	7.06
CC(Sc1nc(NCc2ccccc2)nc(N2CCOCC2)n1)C(=O)Nc1ccccc1 (stereo not drawn)	6.63
S=c1[nH]nc(-c2ccccc2)o1	9.33
C[C@@H]1C[C@@H]2OC(=O)[C@]3(C)[C@H]2[C@@H](OC3(C)O)[C@]2(C)C(=O)CC[C@H]12 (stereo partly drawn)	5.7
Cc1c(Cl)cccc1NS(=O)(=O)c1ccc(-c2ccc(=O)[nH]n2)o1	18.6
CCOC(=O)Nc1ccc(S(=O)(=O)Nc2nc(C)cc(C)n2)cc1	-16.2
O=C(O)C(=O)O.O=C(c1ccccc1)c1ccc(OCCCN2CCCC2)cc1	-29.9
COc1cc(/C=N/NC(=O)CCC(=O)NCc2ccccc2)cc(OC)c1OC	6.17
CC(=O)Nc1ccc(S(=O)(=O)N2CCCC(C(=O)O)C2)cc1 (stereo not drawn)	2.62
N#C/C(=C/c1ccc(OCc2ccccc2)cc1)C(=O)NC1CCCCC1	9.04
Cc1cnc(C(=O)OCC(=O)c2ccc(F)c(F)c2)cn1	12
